Assay results published in ChEMBL document CHEMBL4888484, “Replenishing the malaria drug discovery pipeline: Screening and hit evaluation of the MMV Hit Generation Library 1 (HGL1) against asexual blood stage Plasmodium falciparum ,using a nano luciferase reporter read-out” (2022).
Out of some 150,000 compounds screened, about 540 (0.36%) showed an effect of 50% or more. The list shows a part of the results.

system: Plasmodium falciparum; assay: Primary screen in NF54 nanoGlo assay, in single point, at 2uM, 72h; a lower Z score goes with more inhibition; assay type: functional, Erythrocyte; conditions: timepoint 72 hour

Structure (SMILES) | % Inhibition | Z score
C[C@H](O)CN(C)c1c(Cl)cccc1C#N | 2% | -0.29
CCCOc1cc(Cl)c(CN2C[C@@H]3[C@H](C2)[C@H]3C(=O)O)cc1OCC | -2% | 0.31
O=C(NCc1ccc([C@@H](O)c2cccs2)s1)c1ccc(F)cc1 | 6% | -0.94
CCN1CC2(CCN(Cc3ccccc3F)CC2)C[C@@H](c2ccccc2)C1=O | -8% | 1.31
CC1=C(C(=O)N[C@H]2CCC[C@H]2Cc2ccc(F)cc2)OCCO1 | -8% | 1.62
C[C@@H](CN(C)c1cc(C(F)(F)F)ccn1)N1CCOCC1 | -2% | 0.41
CCN(C(=O)CN1C(=O)N[C@@](C)(c2ccc(C)o2)C1=O)c1ccccc1 | -42% | 4.9
O=C(NC[C@](O)(c1ccsc1)c1cccs1)NC1CCCC1 | -3% | 0.46
CC(=O)N[C@H]1[C@H](OC2CCCCC2)O[C@H](COC(C)=O)[C@@H](OC(C)=O)[C@@H]1OC(C)=O | -3% | 0.32
O=c1n(CC2CC2)nc2n1CCN(S(=O)(=O)c1ccccc1C(F)(F)F)C2 | -20% | 3.4
CCc1ccccc1CN(CC#N)S(=O)(=O)N(C)C | -7% | 1.14
Cn1cc(-c2ccc(CNS(=O)(=O)Cc3ccccc3)cn2)cn1 | 7% | -0.91
Cc1cnnn1-c1ccc(NC(=O)[C@H]2CC(=O)N(c3ccccc3)C2)cc1 | -4% | 0.42
O=C(Cn1cccn1)N1CC[C@]23C(=O)N(Cc4cn(nn4)CCCOc4cccc(c4)[C@H]12)c1ccccc13 | -10% | 1.86
CC(C)N(CCNc1nccc(-c2ccccn2)n1)C(C)C | -2% | 0.5
CC1(CC(=O)N2CC3(C2)CC(F)(F)C3)CC1 | 1% | -0.15
CCOc1ccc(N2C(=O)CN(S(=O)(=O)c3ccccc3)C[C@@]2(C)C(=O)NC2CCCC2)cc1 | -5% | 0.66
COc1ccc(S(=O)(=O)N[C@H]2COC[C@@H]2OC)cc1Cl | -2% | 0.23
CCOc1ccc(C(=O)N2CCC3(CC2)OC(=O)c2ccccc23)cc1OCC | -32% | 6.01
O=C(Nc1ccc(F)cc1)Nc1cccc(-c2cc3cc(F)ccc3[nH]2)c1 | 10% | -1.64
Cc1nc(C(=O)NCCCN2CCOCC2)c(-c2ccccc2Cl)s1 | 5% | -0.71
c1ccc(-n2nnnc2C2(N3CCCC3)CCCC2)cc1 | -12% | 1.7
